# Laboratory results published in PubChem BioAssay AID2147 (National Center for Advancing Translational Sciences (NCATS), 2009).
# Hit rate of the full screen: of about 230,000 compounds, about 3,600 (1.6%) were called active. The inconclusive results got no clear call from the source; some entries with a clear call stand among them for comparison. Calls come from the whole dose curve; as a rule, active = well fitted inhibition curve with a large enough effect (not every such curve was filed as active); inconclusive = small, poorly fitted or top-dose-only effect, or another doubt; inactive = no such curve, though single readings can be large or run the other way. Potencies of inconclusive entries are doubtful fits and often do not repeat.
# Target: Lysine-specific demethylase 4E (Homo sapiens) (UniProt B2RXH2)
# UniProt B2RXH2, sequence (B2RXH2 whole entry, looked up, the tested form may be a part): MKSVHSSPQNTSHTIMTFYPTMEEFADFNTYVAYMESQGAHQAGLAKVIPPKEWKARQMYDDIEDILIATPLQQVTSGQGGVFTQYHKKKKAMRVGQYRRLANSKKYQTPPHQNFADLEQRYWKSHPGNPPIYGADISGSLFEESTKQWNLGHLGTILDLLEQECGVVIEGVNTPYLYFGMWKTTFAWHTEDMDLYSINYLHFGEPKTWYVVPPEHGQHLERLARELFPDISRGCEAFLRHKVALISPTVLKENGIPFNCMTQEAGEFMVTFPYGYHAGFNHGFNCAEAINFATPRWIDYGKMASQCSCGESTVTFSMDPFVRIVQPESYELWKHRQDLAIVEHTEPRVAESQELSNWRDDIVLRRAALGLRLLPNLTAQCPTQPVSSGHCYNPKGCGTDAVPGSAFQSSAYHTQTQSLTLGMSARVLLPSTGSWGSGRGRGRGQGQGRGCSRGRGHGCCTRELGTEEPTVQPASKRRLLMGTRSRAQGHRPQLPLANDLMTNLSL
# Assay: qHTS Assay for Inhibitors of Human Jumonji Domain Containing 2E (JMJD2E)
# Details: JMJD2E catalytic domain, FDH-coupled NADH fluorescence (FDH is formaldehyde dehydrogenase); series mostly up to 57.1 µM; activity change, negative = inhibition: at the top concentration
# Note: nearly all actives have a fitted effect of over 50% in size.
# Potency is the fitted concentration of half-maximal effect; tags give direction and shape of the fitted curve.
# 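Throughout, for activity change, negative = inhibition: 0% = wells with enzyme and -100% = buffer wells without enzyme.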
SMILES,Potency,"activity change, negative = inhibition"
CCn1nc(C)c(NC(=O)c2ccc(Cl)cc2)c1C,"inconclusive: 31.6 µM [inhibitor, single point]",–
COc1cccc(/C=N/NC(=O)NC2CCCCC2)c1O,active: 22.4 µM,–
CCN1CCN(C(=O)c2cc3cc4ccc(OC)cc4nc3s2)CC1,"inconclusive: 28.2 µM [inhibitor, partial curve]",–
CCOC(=O)c1cc(-c2ccc3c(c2)OCO3)nc2onc(C)c12,"inconclusive: 31.6 µM [inhibitor, single point]",–
COCCCn1c(=N)c(C(=O)NCc2ccc3c(c2)OCO3)cc2c(=O)n3ccccc3nc21,"inconclusive: 35.5 µM [inhibitor, partial curve]",–
COc1cccc(C(=O)Nc2cc(C)c3c(=O)oc4ccccc4c3n2)c1,"inconclusive: 39.8 µM [inhibitor, single point]",–
CSCCNC(=O)c1ccc(C(C)(C)C)cc1,–,inactive: -6.28%
COC(=O)C(Cc1ccccc1)NC(=O)c1cc(=O)[nH]c2ccccc12 (centres undefined),"inconclusive: 28.2 µM [inhibitor, partial curve]",–
CCn1c(=N)c(S(=O)(=O)c2ccc(C)cc2)cc2c(=O)n3ccccc3nc21,"inconclusive: 3.55 µM [inhibitor, partial curve]",–
Oc1ccc(Br)cc1CNc1ccccn1,–,inactive: -1.06%
COCCNC(=S)N/N=C(\C)c1ccc(C)c([N+](=O)[O-])c1,–,inactive: 0.644%
C=C(C)Cn1c(-c2ccncc2)n[nH]c1=S,–,inactive: -9.22%
COc1cccc(-c2nnn(CC(=O)O)n2)c1,–,inactive: 12.7%
CCOC(=O)CC1C(=O)NCCN1C(=O)c1cc2c(=O)n3cccc(C)c3nc2s1 (centres undefined),"inconclusive: 28.2 µM [inhibitor, partial curve]",–
CS(=O)(=O)c1ccc2nc(NC(=O)c3ccc(NS(=O)(=O)c4ccc(F)c(F)c4)cc3)sc2c1,"inconclusive: 28.2 µM [inhibitor, partial curve]",–
COc1ccc(-c2cc(C(F)F)nc(-n3nc(C)cc3C)n2)cc1,"inconclusive: 31.6 µM [inhibitor, partial curve]",–
COc1ccc(-c2nc(-c3cccs3)c(-c3cccs3)[nH]2)cc1OC,"inconclusive: 28.2 µM [inhibitor, partial curve]",–
O=C(Cc1cccs1)N/N=C/C=C/c1ccco1,–,inactive: 6.41%
OCCC1CN(Cc2ccc(-c3ccco3)cc2)CCN1Cc1ccsc1 (centres undefined),"inconclusive: 28.2 µM [inhibitor, partial curve]",–
COC(=O)C/C=C/[C@@H](C)[C@H](NC(=O)OCC(Cl)(Cl)Cl)c1cccc(OC)c1,–,inactive: -0.407%
CCCn1nc(NC(=O)c2ccco2)c2cc3ccc(C)cc3nc21,"inconclusive: 31.6 µM [inhibitor, partial curve]",–
COC(=O)C1(C(C)=O)CC2=CC[C@@H]3C(=O)N(c4ccccc4)C(=O)[C@@H]3[C@@H]2Cc2ccccc2[C@@H]1C[N+](=O)[O-] (some centres undefined),–,inactive: 13.5%
COc1ccc(S(=O)(=O)N2CCCCC2)cc1NC(=O)CN1CCN(C(C)=O)CC1,–,inactive: 1.79%
COc1cc(/C=C/C(=O)Nc2cc(C(F)(F)F)ccc2Cl)cc(OC)c1OC,"inconclusive: 28.2 µM [inhibitor, partial curve]",–
Cc1ccc(/C=C/C(=O)Nc2nnc(SCc3ccc(C#N)cc3)s2)o1,"inconclusive: 31.6 µM [inhibitor, single point]",–

SMILES,Potency,"activity change, negative = inhibition"
COc1ccc(-c2nnc(SCC(=O)N3CCCC(C)C3)o2)c(OC)c1 (centres undefined),–,inactive: 1.05%
COc1ccc(N2CCN(Cc3ccc(Br)s3)CC2)cc1,active: 14.1 µM,–
COc1ccc(-c2cc(-c3ccc(OC)cc3)c(C#N)c(SC)n2)cc1,"inconclusive: 6.31 µM [inhibitor, full curve]",–
N#Cc1c(N)oc(-c2ccco2)c1-c1ccco1,active: 1.58 µM,–
Cc1ccc2nc(-c3ccc(O)cc3)c(Nc3ccc4c(c3)OCCO4)n2c1,"inconclusive: 14.1 µM [inhibitor, partial curve]",–
Cc1cc(C)c2cc(CN(Cc3cccnc3)C(=O)c3ccc(F)cc3)c(Cl)nc2c1,"inconclusive: 28.2 µM [inhibitor, single point]",–
Cc1cccc(C=Nc2ccccc2C(N)=O)c1,"inconclusive: 28.2 µM [inhibitor, partial curve]",–
COC(=O)Cc1c(O)ccn(Cc2ccc3c(c2)OCO3)c1=O,–,inactive: -2.92%
CCN1C(=O)N[C@@H](c2ccco2)C(C(=O)OC)=C1C,–,inactive: 11.1% [at 11.4 µM]
NC(=O)C1=C[C@@H](c2csc3ccccc23)C[C@@H](OCCCCO)O1,"inconclusive: 20 µM [inhibitor, single point]",–
CCNc1oc(-c2ccc(OC)cc2)nc1S(=O)(=O)c1ccc(Br)cc1,"inconclusive: 39.8 µM [inhibitor, single point]",–
O=C(O)[C@H](Cc1ccccc1)NC(=O)N1CCOCC1,–,inactive: 2.5%
COc1ccc(-c2csc(NC(=O)c3cc(=O)c4ccccc4o3)n2)cc1OC,–,inactive: 6.9%
Cc1ccc(-n2nc3c(c2NC(=O)/C=C\c2ccc4c(c2)OCO4)CSC3)cc1,"inconclusive: 35.5 µM [inhibitor, single point]",–
Cc1nn(-c2ccccn2)c(C)c1Oc1ccccc1O,–,inactive: 3.75%
CN1C(c2ccc(F)cc2)=CS/C1=C(/C#N)c1nnc(N2CCOCC2)n1-c1ccccc1,–,inactive: 4.31%
NNc1nnc(-c2ccccc2)c(-c2ccccc2)n1,"inconclusive: 39.8 µM [inhibitor, single point]",–
CCCCC(=O)/C=C/n1c(=S)oc2ccccc21,–,inactive: 0.824%
O=C(CSc1nc2c(cnn2-c2ccc(F)cc2)c(=O)[nH]1)N1CCCc2ccccc21,"inconclusive: 35.5 µM [inhibitor, single point]",–
COc1ccc(-n2nnnc2SCC(=O)c2ccc(O)c(O)c2)cc1,active: 11.2 µM,–
CCCCOC(=O)c1c(C)oc2ccc(NS(=O)(=O)c3ccc4c5c(cccc35)C(=O)N4)cc12,"inconclusive: 39.8 µM [inhibitor, single point]",–
CCCN(CC1CC1)C(=O)CSc1ncnc2sc(C)c(C)c12,–,inactive: -9.13%
O=C(CSc1ncc(-c2ccc(F)cc2)n1Cc1ccco1)Nc1ccc2c(c1)OCO2,–,inactive: 1.78%
N#Cc1c(NC(=O)CSc2ncn[nH]2)sc2c1CCCCC2,–,inactive: -3.96%
CC1CC(CCC(=O)NC(=S)Nc2ccc(Cl)cn2)C(=O)O1 (centres undefined),"inconclusive: 39.8 µM [inhibitor, single point]",–

SMILES,Potency,"activity change, negative = inhibition"
CC(=O)Nc1cc(NC(C)=O)cc(-c2nc3ccccc3[nH]2)c1,"inconclusive: 28.2 µM [inhibitor, partial curve]",–
COc1cc2c(O)c3c(c(-c4ccc5c(c4)OCO5)c2cc1OC)C(=O)OC3,"inconclusive: 35.5 µM [inhibitor, partial curve]",–
CSc1nc(SCC(=O)NCc2ccco2)c2c3c(sc2n1)COC(C)(C)C3,"inconclusive: 31.6 µM [inhibitor, partial curve]",–
Cc1ccc2[nH]c(=O)c(CN(Cc3cccnc3)C(=S)NCCCN(C)C)cc2c1,"inconclusive: 35.5 µM [inhibitor, single point]",–
Cc1cc2n(n1)C(c1ccccc1)Nc1ccccc1-2 (centres undefined),"inconclusive: 35.5 µM [inhibitor, partial curve]",–
CC(C)=N/N=c1\scc(C)n1Cc1ccco1,–,inactive: -1.27%
Cc1cc(Cl)ccc1NC(=S)Nc1cccnc1,–,inactive: -6.25%
c1ccc2sc(Cc3nnc4n3CCCCC4)nc2c1,–,inactive: -2.35%
O=c1cc(N2CCc3ccccc3C2)[nH]c(=O)n1-c1ccccc1Cl,"inconclusive: 35.5 µM [inhibitor, single point]",–
Cc1ccc(C(=O)CSc2nnnn2Cc2ccccc2)cc1C,–,inactive: -0.228%
CCn1c(O)c(N=NC(=O)c2cccnc2)c2cc(Br)ccc21,–,inactive: 15%
CCc1cc2c(C)cc(=O)oc2cc1OC(=O)C1CCCN1C(=O)OC(C)(C)C (centres undefined),"inconclusive: 15.8 µM [inhibitor, partial curve]",–
Cc1cc(/C=N/NC(=O)Cn2c3ccccc3c(=O)c3ccccc32)c(C)n1-c1ccccc1,"inconclusive: 28.2 µM [inhibitor, partial curve]",–
COc1ccc(-c2c3c(=O)n(C)c(=O)n(C)c3cn2-c2ccccc2O)cc1,"inconclusive: 31.6 µM [inhibitor, partial curve]",–
O=C(Nc1nc2c(cc3c4c(cccc42)CC3)s1)c1ccccc1Cl,"inconclusive: 17.8 µM [inhibitor, partial curve]",–
O=C(O)CC[C@@H](C(=O)O)N1C(=O)c2ccccc2C1=O,"inconclusive: 35.5 µM [inhibitor, single point]",–
O=C(Nc1ccccc1)N1CCN(c2cccc(C(F)(F)F)c2)CC1,–,inactive: 1.37%
Oc1ccc(Nc2nc(-c3ccc4ccccc4c3)cs2)cc1,"inconclusive: 11.2 µM [inhibitor, partial curve]",–
Cc1ccc(C2CC(c3ccco3)n3nc(N)nc3N2)cc1 (centres undefined),"inconclusive: 39.8 µM [inhibitor, single point]",–
Cc1cc(C)c2cc(C(c3nnnn3CC3CCCO3)N3CCN4CCCC4C3)c(=O)[nH]c2c1 (centres undefined),"inconclusive: 31.6 µM [inhibitor, single point]",–
COC(=O)c1sc(-c2ccc(C(C)(C)C)cc2)cc1NC(=O)CSCC(=O)O,"inconclusive: 35.5 µM [inhibitor, partial curve]",–
Cc1cc(Cl)ccc1C(=O)C1CCCN(C(=O)c2snnc2C)C1 (centres undefined),"inconclusive: 0.0355 µM [inhibitor, full curve]",–
Cc1cc(NC(=O)CSc2nnc(Cc3ccccc3)n2C)no1,–,inactive: 3.63%
OCc1ccccc1OCCOc1ccc(Cl)c2cccnc12,"inconclusive: 31.6 µM [inhibitor, partial curve]",–
